Data as given in article PMC3834829.
No constants are given. Whether binding was seen depends on the method and setting. In cells and extracts the contact can be indirect. Some binding calls cover weakened binding; strength is not graded here.

By UniProt entry, the sequences of proteins in these tests, tags left out. Where a name states a change or a piece, a line headed by the entry shows the natural chain unless it says otherwise.
UniProt Q9H165: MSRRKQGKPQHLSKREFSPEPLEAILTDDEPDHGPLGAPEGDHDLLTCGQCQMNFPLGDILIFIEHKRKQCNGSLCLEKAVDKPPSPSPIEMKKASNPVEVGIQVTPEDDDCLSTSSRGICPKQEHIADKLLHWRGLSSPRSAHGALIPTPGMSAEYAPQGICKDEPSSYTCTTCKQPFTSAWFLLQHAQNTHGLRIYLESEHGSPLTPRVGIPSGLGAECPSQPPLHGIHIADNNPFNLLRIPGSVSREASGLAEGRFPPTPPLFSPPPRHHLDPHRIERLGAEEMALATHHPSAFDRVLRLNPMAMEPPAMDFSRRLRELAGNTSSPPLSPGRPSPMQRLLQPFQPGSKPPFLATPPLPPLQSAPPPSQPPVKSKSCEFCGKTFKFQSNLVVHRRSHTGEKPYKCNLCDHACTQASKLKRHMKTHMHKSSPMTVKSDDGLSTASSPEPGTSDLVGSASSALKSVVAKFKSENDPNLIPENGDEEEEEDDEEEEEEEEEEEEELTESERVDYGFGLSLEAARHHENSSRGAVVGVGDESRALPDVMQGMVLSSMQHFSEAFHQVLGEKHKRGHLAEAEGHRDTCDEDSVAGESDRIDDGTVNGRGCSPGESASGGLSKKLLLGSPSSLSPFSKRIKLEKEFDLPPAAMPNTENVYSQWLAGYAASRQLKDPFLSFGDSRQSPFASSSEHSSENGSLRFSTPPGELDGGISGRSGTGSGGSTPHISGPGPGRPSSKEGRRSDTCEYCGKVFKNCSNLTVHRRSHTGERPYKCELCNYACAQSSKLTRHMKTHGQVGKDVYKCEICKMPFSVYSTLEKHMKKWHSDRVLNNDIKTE
UniProt Q9Y466: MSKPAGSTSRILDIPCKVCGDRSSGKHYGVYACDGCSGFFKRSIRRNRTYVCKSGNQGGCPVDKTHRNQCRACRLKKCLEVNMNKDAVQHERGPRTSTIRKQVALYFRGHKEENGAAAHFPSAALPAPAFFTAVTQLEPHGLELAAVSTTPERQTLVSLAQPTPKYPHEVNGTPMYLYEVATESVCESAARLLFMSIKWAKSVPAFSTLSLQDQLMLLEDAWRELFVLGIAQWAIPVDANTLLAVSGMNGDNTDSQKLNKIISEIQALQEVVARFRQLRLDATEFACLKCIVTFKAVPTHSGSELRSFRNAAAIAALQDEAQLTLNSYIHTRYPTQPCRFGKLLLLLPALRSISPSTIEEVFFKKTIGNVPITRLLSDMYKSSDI

Target: FLAG-BCL11A-XL L319A, HEK293 (UniProt Q9H165)
Test: co-IP; HEK293 co-transfected; nuclear extracts in Triton X-100 lysis buffer; FLAG-tagged BCL11A-XL precipitated with anti-FLAG M2; Western blot

## HA-TLX, HEK293 (from UniProt Q9Y466 1-385)
  binding: binds
